Assay results published in the RNAGym collection of RNA variant scans (doi:10.1073/pnas.2313332121).
Variants at the floor of the assay are shown more often than the library holds them.

B1: TPR 5TU (parent)
chain: GGAUCUUCUCGAUCUAACAAAAAAGACAAAUCUGCCACAAAGCUUGAGAGCAUCUUCGGAUGCAGAGGCGGCAGCCUUCGGUGGCGCGAUAGCGCCAACGUUCUCAACUAUGACACGCAAAACGCGUGCUCCGUUGAAUGGAGUUUAUCAUG

Variants of: B1
Assay: polymerase ribozyme fitness, log enrichment relative to wild type (log ratio); higher = more active; in vitro selection for triplet polymerase activity
Procedure, shortened: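 Fitness compares each genotype's enrichment to that of the wild type on a logarithmic scale, averaging replicates with inverse-variance weights. The logarithm is base 2. Enrichment came from Illumina sequencing of input and output libraries after one triplicate round of in vitro selection, which included frozen incubation at −7 °C, of PCR-built, transcribed mutant libraries of each subunit of a heterodimeric triplet polymerase ribozyme. Only genotypes with ≥10 input reads and ≥1 read per output were kept.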

Variant	polymerase ribozyme fitness (log ratio)
A16C G25C A64U C85A A89C G128A	≤ -4.2
A16C G34C A49C U77A A91C	≤ -4.2
A16C G34U C93U C105U G112A	≤ -4.2
A16C G48U C54A A64G	≤ -4.2
A16C G50C A64G C85A G92C G143A	≤ -4.2
A16C G59A C85G G126U	-2.76
A16C G83A G94A	-2.79
A16C G84U A120G	-2.78
A16C G94A C116G	-0.496
A16C G94C C105U A115G G152U	≤ -4.2
A16C G112U A150U	≤ -4.2
A16C G126A	-0.0283
A16C G141A	-0.406
A16C U31G G50A C95A A138G	≤ -4.2
A16C U31G U61A A122G G143U	≤ -4.2
A16C U33A G58U C75U C85A G94U	≤ -4.2
A16C U33C U77A	≤ -4.2
A16C U44G A47G C51A A60C U77A	≤ -4.2
A16C U45A U56G A66G G92C C108G G124U	≤ -4.2
A16C U45G A106G	-0.613
A16G A17G C18A G58C A60G C95A U144C A150C	≤ -4.2

Variant	polymerase ribozyme fitness (log ratio)
A16G A17G U56G U61G G68A C72U C114G G143U	≤ -4.2
A16G A17U C32U U33G U55G A91G A97U A120U G141C	≤ -4.2
A16G A17U G34C A47U C87U	≤ -4.2
A16G A19U C57A C87A G126U	≤ -4.2
A16G A19U G46A C54G A66G C95U A142U	≤ -4.2
A16G A20C C69G C149G	-4.02
A16G A20G C35A G88C	≤ -4.2
A16G A20U A28G A89U A91U	≤ -4.2
A16G A20U C32A U45A A47C G83C C93G G140A	≤ -4.2
A16G A20U C36U U55A G62A C85A	≤ -4.2
A16G A22G C27A A49C C57U G59C C85U C118A C129U	≤ -4.2
A16G A22U C35A G42A G68U G83U G94C A98C G143U	≤ -4.2
A16G A22U U55G C75G A147C	≤ -4.2
A16G A23U C72A C87A C93U G126A	≤ -4.2
A16G A24C A49G A52C A122C	≤ -4.2
A16G A24U C35A U61A C75A G124C G126U	≤ -4.2
A16G A24U G59U A64C C75U G92A C132G G141C	≤ -4.2
A16G A26U C85A C105G C114U G141C U151C	≤ -4.2
A16G A28C G88A G92A C116A A120U C131G A147G	≤ -4.2
A16G A28G C93U A110G G152U	≤ -4.2
A16G A28U G34U C69U C93G C105G C116U	≤ -4.2

Variant	polymerase ribozyme fitness (log ratio)
A16G A29C A40U A52C G83A C85U	≤ -4.2
A16G A29U A40C C57U G62A A115G C149U	≤ -4.2
A16G A39C	-2.62
A16G A40C U77A C87U G133A G152U	≤ -4.2
A16G A40G G59U C93A C103G	≤ -4.2
A16G A49C G50C C85G G117A U148G	≤ -4.2
A16G A49C U56A G62U C105G	≤ -4.2
A16G A91U	≤ -4.2
A16G C27U A28G C43U U53A C57A U82G C93U G143C	≤ -4.2
A16G C27U A66U C93U A107G G136U U144C	≤ -4.2
A16G C32U C72A C76U C85G A107U	≤ -4.2
A16G C35G U53A C57U G84U C105G A150U	≤ -4.2
A16G C38A U56G C96U C103U C149G	≤ -4.2
A16G C38A U90G	≤ -4.2
A16G C43A C57G G59U G70U G88U C99U A107G	≤ -4.2
A16G C43A U53C G70A A73G	≤ -4.2
A16G C43G A60G A89U A91G G100C C105U A137C	≤ -4.2
A16G C54U	-0.601
A16G C54U A60C A89C C116U C125U A142C	≤ -4.2
A16G C54U C76A C93U A97G C103U C123U G128C	≤ -4.2
A16G C57A G62A C96U	-1.89

Variant	polymerase ribozyme fitness (log ratio)
A16G C76G G88C	≤ -4.2
A16G C85U C118G G140A	≤ -4.2
A16G C93G	-4.02
A16G C114G G133C	≤ -4.2
A16G C149G	-3.97
A16G G25U A150G	-3.86
A16G G42A A52G C95U C96A C99G	≤ -4.2
A16G G42C C54G G70A C87A C99U A113C G141U U151C	≤ -4.2
A16G G42U C43U A64C C87U	≤ -4.2
A16G G83U A107U A142C	≤ -4.2
A16G G83U G92A C96U	≤ -4.2
A16G G83U U139G	-1.17
A16G G126A G143A	-3.34
A16G U31C C69U G88C	≤ -4.2
A16G U33A A150G	≤ -4.2
A16G U33G C35G C87A	≤ -4.2
A16G U33G G83U U134C	≤ -4.2
A16G U144G	0.162
A16U A17C U44C U56A C76U G88U C114A	≤ -4.2
A16U A17G G59C U77G G94U	-3.85
